# Measured values: the RNAGym collection of RNA variant scans (doi:10.1073/pnas.2313332121)
# This sample is rich in variants without activity.
# B1: TPR 5TU (parent)
# chain: GGAUCUUCUCGAUCUAACAAAAAAGACAAAUCUGCCACAAAGCUUGAGAGCAUCUUCGGAUGCAGAGGCGGCAGCCUUCGGUGGCGCGAUAGCGCCAACGUUCUCAACUAUGACACGCAAAACGCGUGCUCCGUUGAAUGGAGUUUAUCAUG
# Variants of: B1
# Test: polymerase ribozyme fitness, log enrichment relative to wild type (log ratio); higher = more active; in vitro selection for triplet polymerase activity
# Method in brief: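 Mutant libraries for each subunit of a heterodimeric triplet polymerase ribozyme were made by PCR and then transcribed. Each library underwent one round of in vitro selection in triplicate: annealing with a biotinylated primer, the partner subunit and triplets, frozen incubation at −7 °C, gel excision of extended constructs, streptavidin-bead capture and RT-PCR. Input and output libraries were Illumina-sequenced, and only genotypes with ≥10 input reads and ≥1 read per output were kept. Fitness is the logarithm, base 2, of genotype enrichment over wild-type enrichment, computed from inverse-variance-weighted replicate averages.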
row,Variant,polymerase ribozyme fitness (log ratio)
1,A16U C35U G92U C116G,-3.21
2,A16U G42A G86A C99U,≤ -4.2
3,A16G C38G A49U U55A C85U U139A,≤ -4.2
4,A17G C35U C36U C95U,≤ -4.2
5,A16U C36G C95A,≤ -4.2
6,A16U G65A A66G C85U C99U U101A A122U,≤ -4.2
7,A16U A41C G117C U148G,≤ -4.2
8,A17U A23C A24C A29G G42C G59C C87G A115C,≤ -4.2
9,A17G A39C C79A C87A G136C,≤ -4.2
10,A16G A23C G84A A106G A107G C118U C129A U146G,≤ -4.2
11,A17U A19U C93G U111G,≤ -4.2
12,A17U A66G C93U U139A G141A U146G,≤ -4.2
13,A17U A19G G46C G62U C87G A119C,≤ -4.2
14,A16G G58U G68A C85U C87G G126A C132G,≤ -4.2
15,A16U C57G C75G C76U G140C,≤ -4.2
16,A16U C96U A107U U145A U146C,≤ -4.2
17,A16C U44A,≤ -4.2
18,A17C A91U,≤ -4.2
19,A16C U31G A47C C76A C85U A89G,≤ -4.2
20,A16U A41G A73G C85A C95U C125U,≤ -4.2
21,A17U C93A G100A C103G A113U C125U,≤ -4.2

row,Variant,polymerase ribozyme fitness (log ratio)
1,A17U A20C C85U U102G C116G,-3.83
2,A17C A29U C36U A41U G81A A91C C108U U130C,≤ -4.2
3,A17U G46A G74C C76A A107C A115U,≤ -4.2
4,A17C A23G U55A G94A C95A G152U,≤ -4.2
5,A16U A21U C35U U44A G59C C96G,≤ -4.2
6,C18A A19G A37U U53A G83A U102G C132G G133A,≤ -4.2
7,A16G U44A C54U A106C G112A A115G C131U A138U,≤ -4.2
8,A17U U55G G68U G84A C103A G152A,≤ -4.2
9,A16U A22C,-2.41
10,A16U G25C C38U U55A A91G A107C C108U,≤ -4.2
11,A16C U31A G58C G80C C95U A122G G143A,≤ -4.2
12,A16U G42A U53A C85U C96G A120C,≤ -4.2
13,A17C C54A,-1.11
14,A17U C57G,-0.677
15,A17G G62A C63U G65A C96A C125G,≤ -4.2
16,A16G C72U C87G,≤ -4.2
17,A16G A29U A40U G84A C129G U146C,≤ -4.2
18,A17C A41U U55A G80U G83U C87U G128U,≤ -4.2
19,A16G G46U,-1.19
20,A17G G58A C93U U101G U139A,≤ -4.2
21,A16G C43A C79G C85U A106G C118U G141C,≤ -4.2

row,Variant,polymerase ribozyme fitness (log ratio)
1,A16U A30C U61A C96U G140U,≤ -4.2
2,A16C U61A G67A C87U A107U,≤ -4.2
3,A16U C35A U45A C95G,≤ -4.2
4,A17G U77C A91G A113G G126C U151A,≤ -4.2
5,A16G C35U G62U G71A C85G U104A,≤ -4.2
6,A16U A22G C57A U135A,-3.06
7,A16G C35U A66G C76A C79G G83U,≤ -4.2
8,A16U C18U G42U U44G A120U G128U G143C,≤ -4.2
9,A16G C43A U55A G80C G117U G133C,≤ -4.2
10,A17U G65U G83A,≤ -4.2
11,A16U A26C A29U U55G A97C G140U,≤ -4.2
12,A17U C93A U127G,≤ -4.2
13,A16U C32A C96U U102C A115U,≤ -4.2
14,A16U A24G A26U G92U G94U U104G A106C C149U,≤ -4.2
15,A17U U104A A106U G141C,≤ -4.2
16,A17U G48C G50U C76A C93A,≤ -4.2
17,A17U C87U C125U,-1.39
18,A17C A20C U53G G84A,-2.28
19,A16G C27G U44A C79G,≤ -4.2
20,A17U C54A U55C A73G C93A C116G A121U,≤ -4.2
21,C18A A19G C57A C87U C129A U135G,≤ -4.2

row,Variant,polymerase ribozyme fitness (log ratio)
1,A17G U33A G58A G74C C85A C95U,≤ -4.2
2,A16G A23G A26C C51G G67C C96U C108U A110U,≤ -4.2
3,A16G A20C U78A C87U,≤ -4.2
4,A16G A41U C43U U61G A73G G86A,≤ -4.2
5,A16G U53A U146G,-2.19
6,A16U A120G,-2.64
7,A17C G42C U44A C54U C105G,≤ -4.2
8,A16U A17C C87G C99A A106G U139C U146C,≤ -4.2
9,A17U G42A G74C G86C G88U A91U A121U G133U,≤ -4.2
10,A16C U55A,-1.28
11,A16G C116A,0.283
12,A17C C125G G126A,-3.65
13,A16U U44A U45A C76U A142U,≤ -4.2
14,A17U G46A C51U U53C C85A A122C,≤ -4.2
15,A16U A39U G84A G92U C103U C149G U151C,≤ -4.2
16,A17U A29U G50C A91U C116A U139C,≤ -4.2
17,A17C G59C G84U G100A U135C A137C,≤ -4.2
18,A17C C99A,-0.000978
19,A17U U44G U56A C87A C95U C118U,≤ -4.2
20,A17U C87G G88U G140A G143C U148C,≤ -4.2
